In the supplement of paper PMC4967469:

Columns and labels:
Test in all cases: Viability of human cancer cell lines after 72 h of drug (GDSC screen)
[1] = compound: CCC(=O)N1CCN(c2ccc(-n3c(=O)ccc4cnc5ccc(-c6cnc7ccccc7c6)cc5c43)cc2C(F)(F)F)CC1 [JW-7-52-1]; settings: top dose 1.2 µM; top dose inferred
Experimental: (§1)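 Human cancer cell lines in 384-well plates, medium with 10% serum, drug for 72 h over a 256-fold dose range (nine 2-fold or five 4-fold steps up to the top dose). Adherent lines were fixed and stained with the nucleic acid dye Syto60, suspension lines read with resazurin; signal relative to control wells, capped at 0 and 100%. One two-parameter sigmoid per drug and line, fitted in a mixed model over all curves with the slope shared within a line.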

[2] = compound: Oc1ccc2ccccc2c1SSc1c(O)ccc2ccccc12 [IPA-3]; settings: top dose 32 µM; top dose inferred
Experimental: as §1

[3] = compound: COc1cc2c(Oc3ccc(NC(=O)C4(C(=O)Nc5ccc(F)cc5)CC4)cc3F)ccnc2cc1OCCCN1CCOCC1 [XL-880]; settings: top dose 5.12 µM; top dose inferred
Experimental: as §1

[4] = compound: Cn1nnc2c(C(N)=O)ncn2c1=O [Temozolomide]; settings: top dose 30 µM
Experimental: as §1

[5] = compound: O=C(NOCC1CC1)c1ccc(F)c(F)c1Nc1ccc(I)cc1Cl [CI-1040]; settings: top dose 10 µM; top dose inferred
Experimental: as §1

[6] = compound: CO[C@H]1C[C@@H]2CC[C@@H](C)[C@@](O)(O2)C(=O)C(=O)N2CCCC[C@H]2C(=O)O[C@H]([C@H](C)C[C@@H]2CC[C@@H](O)[C@H](OC)C2)CC(=O)[C@H](C)/C=C(\C)[C@@H](O)[C@@H](OC)C(=O)[C@H](C)C[C@H](C)/C=C/C=C/C=C/1C [Rapamycin]; settings: top dose 0.1 µM; top dose inferred
Experimental: as §1

[7] = compound: CCCC[C@@H](C=O)NC(=O)[C@H](CC(C)C)NC(=O)[C@H](CC(C)C)NC(=O)OCc1ccccc1 [Z-LLNle-CHO]; settings: top dose 2.56 µM; top dose inferred
Experimental: as §1

[8] = compound: CN1CCc2c(c3ccccc3n2Cc2ccc(C(=O)NO)cc2)C1 [Tubastatin A]; settings: top dose 20 µM
Experimental: as §1

Cell Line	AUC [1]	IC50 [1]	AUC [2]	IC50 [2]	AUC [3]	IC50 [3]	AUC [4]	IC50 [4]	AUC [5]	IC50 [5]	AUC [6]	IC50 [6]	AUC [7]	IC50 [7]	AUC [8]	IC50 [8]
NCI-H322M (lung adenocarcinoma, suspension)	0.951	> 1200 nM	0.981	> 32000 nM	0.7	1350 nM	0.983	> 30000 nM	0.9	> 10000 nM	0.901	> 100 nM	0.985	> 2560 nM	0.958	> 20000 nM
JSC-1 (B-cell lymphoma, suspension)	0.477	64.9 nM	0.644	4990 nM	0.601	605 nM	0.905	> 30000 nM	0.806	5030 nM	0.737	29.4 nM	0.744	793 nM	0.753	6600 nM
HL-60 (acute myeloid leukaemia, suspension)	0.632	166 nM	0.743	9060 nM	0.692	1030 nM	0.979	> 30000 nM	0.286	168 nM	0.926	> 100 nM	0.812	1200 nM	0.882	17500 nM
KARPAS-299 (anaplastic large cell lymphoma, suspension)	0.57	112 nM	0.986	> 32000 nM	0.675	896 nM	0.982	> 30000 nM	0.893	8370 nM	0.831	49.4 nM	0.794	963 nM	0.979	> 20000 nM
NKM-1 (acute myeloid leukaemia, suspension)	0.783	522 nM	0.838	22500 nM	0.051	< 20 nM	0.822	18200 nM	0.692	2210 nM	0.911	> 100 nM	0.859	2220 nM	0.717	5250 nM
ROS-50 (B-cell leukaemia, suspension)	0.682	282 nM	0.887	> 32000 nM	0.736	1850 nM	0.972	> 30000 nM	0.971	> 10000 nM	0.822	80.9 nM	0.898	> 2560 nM	0.942	> 20000 nM
MC116 (B-cell lymphoma, suspension)	0.326	28.5 nM	0.988	> 32000 nM	0.707	1010 nM	0.999	> 30000 nM	0.943	7960 nM	0.151	0.892 nM	0.812	906 nM	0.946	16300 nM
KU812 (chronic myeloid leukaemia, suspension)	0.319	24.7 nM	0.682	6130 nM	0.759	1640 nM	0.952	> 30000 nM	0.637	1440 nM	0.384	3.09 nM	0.771	897 nM	0.526	1470 nM
KARPAS-45 (lymphoblastic leukaemia, suspension)	0.786	427 nM	0.731	7930 nM	0.411	190 nM	0.981	> 30000 nM	0.969	> 10000 nM	0.91	> 100 nM	0.823	1190 nM	0.735	5100 nM
BB30-HNC (head and neck, adherent)	0.462	59.2 nM	0.875	30300 nM	0.531	387 nM	0.971	> 30000 nM	0.722	2630 nM	0.813	52.8 nM	0.78	1030 nM	0.912	> 20000 nM
MZ2-MEL (melanoma, adherent)	0.354	27.4 nM	0.907	> 32000 nM	0.703	1330 nM	0.972	> 30000 nM	0.546	851 nM	0.822	72.1 nM	0.749	956 nM	0.977	> 20000 nM
KS-1 (glioma, adherent)	0.285	15.7 nM	0.708	9060 nM	0.505	330 nM	0.884	> 30000 nM	0.801	6330 nM	0.222	0.762 nM	0.756	1080 nM	0.878	> 20000 nM
L-540 (Hodgkin lymphoma, suspension)	0.728	305 nM	0.827	16700 nM	0.81	2340 nM	0.734	7970 nM	0.976	> 10000 nM	0.87	76.3 nM	0.682	485 nM	0.978	> 20000 nM
BB49-HNC (head and neck, adherent)	0.572	128 nM	0.82	29000 nM	0.726	1850 nM	0.968	> 30000 nM	0.786	6370 nM	0.928	> 100 nM	0.789	1680 nM	0.969	> 20000 nM
CPC-N (small cell lung carcinoma, suspension)	0.825	808 nM	0.985	> 32000 nM	0.616	691 nM	0.976	> 30000 nM	0.985	> 10000 nM	0.943	> 100 nM	0.919	> 2560 nM	0.855	18300 nM
D-283MED (medulloblastoma, adherent)	0.9	> 1200 nM	0.984	> 32000 nM	0.883	4630 nM	0.989	> 30000 nM	0.963	> 10000 nM	0.955	> 100 nM	0.957	> 2560 nM	0.991	> 20000 nM

Cell Line	AUC [1]	IC50 [1]	AUC [2]	IC50 [2]	AUC [3]	IC50 [3]	AUC [4]	IC50 [4]	AUC [5]	IC50 [5]	AUC [6]	IC50 [6]	AUC [7]	IC50 [7]	AUC [8]	IC50 [8]
REH (B-cell leukaemia, suspension)	0.819	650 nM	0.585	3390 nM	0.536	399 nM	0.945	> 30000 nM	0.964	> 10000 nM	0.973	> 100 nM	0.914	> 2560 nM	0.838	12700 nM
NCI-H23 (lung adenocarcinoma, adherent)	0.583	126 nM	0.892	> 32000 nM	0.8	2450 nM	0.987	> 30000 nM	0.765	3610 nM	0.987	> 100 nM	0.842	1760 nM	0.964	> 20000 nM
MOLM-13 (acute myeloid leukaemia, suspension)	0.373	34.3 nM	0.862	24600 nM	0.029	< 20 nM	0.979	> 30000 nM	0.907	> 10000 nM	0.764	34.2 nM	0.775	949 nM	0.716	4870 nM
D-502MG (glioma, adherent)	0.959	> 1200 nM	0.972	> 32000 nM	0.597	686 nM	0.974	> 30000 nM	0.834	> 10000 nM	0.955	> 100 nM	0.972	> 2560 nM	0.966	> 20000 nM
EB-3 (Burkitt lymphoma, suspension)	0.432	47.5 nM	0.749	11900 nM	0.698	1280 nM	0.977	> 30000 nM	0.954	> 10000 nM	0.673	20.6 nM	0.736	857 nM	0.849	19000 nM
MOLP-8 (myeloma, suspension)	0.22	11.8 nM	0.796	14300 nM	0.622	683 nM	0.958	> 30000 nM	0.801	4660 nM	0.229	1.06 nM	0.76	869 nM	0.788	8440 nM
LU-139 (small cell lung carcinoma, suspension)	0.595	147 nM	0.848	> 32000 nM	0.785	2870 nM	0.955	> 30000 nM	0.87	> 10000 nM	0.795	61.6 nM	0.907	> 2560 nM	0.879	> 20000 nM
L-363 (myeloma, suspension)	0.15	7.71 nM	0.868	22700 nM	0.845	2980 nM	0.983	> 30000 nM	0.93	> 10000 nM	0.772	33.5 nM	0.784	936 nM	0.885	16700 nM
OCI-AML2 (acute myeloid leukaemia, suspension)	0.335	29.7 nM	0.68	5510 nM	0.477	282 nM	0.962	> 30000 nM	0.231	135 nM	0.981	> 100 nM	0.804	918 nM	0.947	> 20000 nM
LU-165 (small cell lung carcinoma, suspension)	0.831	889 nM	0.987	> 32000 nM	0.749	1840 nM	0.987	> 30000 nM	0.988	> 10000 nM	0.969	> 100 nM	0.947	> 2560 nM	0.951	> 20000 nM
HC-1 (hairy cell leukaemia, suspension)	0.26	16 nM	0.716	7960 nM	0.732	1420 nM	0.835	18600 nM	0.933	> 10000 nM	0.811	50.7 nM	0.769	931 nM	0.878	18900 nM
COLO-320-HSR (large intestine, suspension)	0.591	128 nM	0.802	13400 nM	0.656	813 nM	0.976	> 30000 nM	0.987	> 10000 nM	0.914	> 100 nM	0.934	> 2560 nM	0.954	> 20000 nM
P31-FUJ (acute myeloid leukaemia, suspension)	0.953	> 1200 nM	0.958	> 32000 nM	0.935	> 5120 nM	0.979	> 30000 nM	0.971	> 10000 nM	0.996	> 100 nM	0.981	> 2560 nM	0.983	> 20000 nM
GOTO (neuroblastoma, adherent)	0.632	184 nM	0.921	> 32000 nM	0.626	751 nM	0.977	> 30000 nM	0.941	> 10000 nM	0.931	> 100 nM	0.959	> 2560 nM	0.58	2130 nM
HH (T-cell leukaemia, suspension)	0.566	120 nM	0.705	9280 nM	0.645	923 nM	0.891	> 30000 nM	0.904	> 10000 nM	0.542	8.45 nM	0.692	666 nM	0.728	7020 nM

Lines with a small IC50 respond at low doses; a limit (>, <) means that the fit lies beyond the doses tested. AUC sums up the same curve from the lowest dose to the 256-fold higher top dose: 1 means no effect, lower means more sensitive. For some of these results: Where the top dose is marked as inferred, it is not printed in the source and was worked back from the curve model.
